Non-standard residues stand in square brackets, D forms with d. Residues, ends and D or L forms follow the SMILES beside them. 12Ado = NCCCCCCCCCCCC(=O)O
System: AA8, EMTR1, A549, K1.5, 2008, MRP1, MRP2, MRP3, HEK, MRP4 and MRP5 cell-lines
Settings: human (AA8 and EMTR1: CHO, Chinese hamster)

Question: For `NCCCCCCCCCCCC(=O)N[C@@H](CCCCN)C(=O)N[C@@H](CCCCN)C(=O)NCCCCCCCCCCCC(=O)N[C@@H](CCCCN)C(=O)N[C@@H](CCCCN)C(=O)NCCCCCCCCCCCC(=O)N[C@@H](CCCCN)C(=O)N[C@@H](CCCCN)C(=O)NCCCCCCCCCCCC(=O)N[C@@H](CCCCN)C(N)=O` (H-[12Ado]KK[12Ado]KK[12Ado]KK[12Ado]K-NH2), which CC50 is on record?
Answer: 15 to 18 µM
